Laboratory results from PubChem BioAssay AID463173 (ICCB-Longwood Screening Facility, Harvard Medical School, 2010).
About 1,700 (3.3%) of roughly 52,000 compounds were called active. Cut-off read from the data, not from the text of the source: active = survival mostly below about 52% (no sharp cut-off); inactive = mostly above about 56%. Some of the results follow.

System: Wild type
Assay: growth inhibition of S. aureus wild type versus tarO mutant, primary screen, teichoic acid synthesis inhibitors, RN4220, OD600 (AID 463173)
Conditions: S. aureus RN4220 wild type/DeltatarO growth, OD600, 18 h, stronger effect = lower value, screened at 18.75 µg/mL (by protocol)

Row | SMILES | survival
1 | Cc1nc2sc(C(=O)NCc3ccc(Cl)cc3)c(NC(=O)c3ccccc3)c2c(C)c1C | inactive: 86%
2 | Cc1ccc(-n2ncc(C(=O)Nc3ccc(C)c(F)c3)c2C2CCN(C(=O)OC(C)(C)C)CC2)cc1C | inactive: 127%
3 | CCOc1cc(C2c3c(oc4ccccc4c3=O)C(=O)N2Cc2ccc3c(c2)OCO3)ccc1O (stereo not drawn) | inactive: 90%
4 | COc1cccc(N2CCN(c3nc4ccc(C(=O)c5ccccc5)cc4n4c(C)nnc34)CC2)c1 | inactive: 75%
5 | Cc1ccc(NC(=O)Cn2c(CCC(=O)O)ccc2-c2cccs2)cc1 | inactive: 86%
6 | CCC(C(=O)OCc1cc(=O)n2nc(CCOC)sc2n1)c1ccccc1 (stereo not drawn) | inactive: 136%
7 | Cc1ccccc1NC(=O)c1nc(-c2ccncc2)no1 | inactive: 85%
8 | O=C(Cn1cc(/C=N/NC(=S)Nc2ccccc2)c2ccccc21)NCc1ccco1 | inactive: 117%
9 | Cc1ccc(NC(=O)NCc2cccn2Cc2ccccc2)cc1F | inactive: 75%
10 | Cc1ccc(-c2cn3c(n2)sc2cc(C(=O)N4CCCCC4)ccc23)cc1 | inactive: 86%
11 | Cc1cc(C)c2c(=O)cc(C(=O)Nc3ccc(S(=O)(=O)Nc4nc(C)cc(C)n4)cc3)oc2c1 | inactive: 107%
12 | COC(=O)C(C)Sc1nc2c([nH]c3ccccc32)c(=O)n1-c1ccc(OC)cc1 (stereo not drawn) | inactive: 75%
13 | N#Cc1c(-c2cccs2)cc(-c2cccs2)nc1SCc1cccnc1 | inactive: 104%
14 | O=C(Nc1ccc2nc(SCC(=O)N3CCCC3)sc2c1)c1ccc(F)cc1 | inactive: 87%
15 | CCOc1ccccc1NC(=O)Cn1c(=O)n(Cc2ccccc2)c(=O)c2c(C)c(C(=O)N(C)C)sc21 | inactive: 71%
16 | CCN(CC)C(=O)CSc1nc2cc3c(cc2c(=O)n1Cc1ccc(C(=O)NCCc2ccc(OC)c(OC)c2)cc1)OCO3 | inactive: 77%
17 | COc1cc(Cl)c(C)cc1NC(=O)c1cn(CC(C)C)c(=O)c2cc(OC)c(OC)cc12 | inactive: 76%
18 | COc1ccc(CNC(=O)CCCn2c(SCC(N)=O)nc3cc4c(cc3c2=O)OCO4)cc1 | inactive: 117%
19 | O=C(NCc1ccncc1)c1c(O)c2ccccc2[nH]c1=O | inactive: 113%
20 | Cc1cc(Nc2cccc(Cl)c2C)n2nc(Cc3ccccc3)nc2n1 | inactive: 81%
21 | CC(NC(=O)c1ccccc1)c1nc2ccccc2n1Cc1ccc(Cl)cc1 (stereo not drawn) | inactive: 90%
22 | COc1ccc(CNC(=O)c2cnn3c(C)c(Cc4ccc(F)cc4)c(C)nc23)cc1 | inactive: 66%
23 | CC(C)OCCCNC(=O)CCCn1c(SCC(=O)c2ccc(Br)cc2)nc2c(sc3ccccc32)c1=O | inactive: 83%
